Results: ChEMBL document CHEMBL4888484, “Replenishing the malaria drug discovery pipeline: Screening and hit evaluation of the MMV Hit Generation Library 1 (HGL1) against asexual blood stage Plasmodium falciparum ,using a nano luciferase reporter read-out” (2022)
The campaign covered roughly 150,000 compounds. About 540 (0.36%) showed an effect of 50% or more. The list shows a part of the results.

What follows are compounds tested on Plasmodium falciparum (assay: Primary screen in NF54 nanoGlo assay, in single point, at 2uM, 72h; a lower Z score goes with more inhibition). Settings: timepoint 72 hour.
Format: functional, Erythrocyte

| Structure (SMILES) | % Inhibition [%] | Z score |
| --- | --- | --- |
| O=C(Nc1cccc(N2CCCC2=O)c1)Oc1ccccc1 | -13 | 1.66 |
| O=C(N[C@H]1COC[C@@H]1N1CCOCC1)c1cccn1C1CC1 | -10 | 0.93 |
| Cc1cc(CC(C)NC(C)c2ccnn2C)n[nH]1 (stereo unspecified) | 2 | -0.28 |
| C[C@@H](Cc1ccccn1)N(C)CC(=O)N1CCOCC1 | -2 | 0.48 |
| c1ccc2c(c1)CCCC[C@@]21CCCNC1 | -1 | 0.09 |
| COc1ccc(-c2oc(=O)n(Cc3ccco3)c2-c2ccc(OC)cc2)cc1 | -3 | 0.37 |
| C/C=C(\C)CN1CC[C@@]2(CCCN(Cc3cccnc3)C2=O)C1 | -11 | 1.58 |
| CCc1nnc(-c2ccc(OC)c(NC(=O)N[C@H]3CN4CCC3CC4)c2)o1 | 12 | -1.12 |
| CC(C)c1nccc(CN2CCC3(CC2)C(=O)N(C)c2ccccc23)n1 | -5 | 1.03 |
| Cc1nc(C)c(CC(=O)N2CCN(Cc3nonc3C)CC2)c(=O)[nH]1 | -9 | 1.74 |
| CNC(=O)c1ccc(CN(C)c2ccc(C#N)c(Cl)c2)o1 | -13 | 1.31 |
| C=CCn1cc(CN2C[C@H]3CC[C@H]2C3)c(C)n1 | -2 | 0.33 |
| CN1C[C@@]2(Cc3c1ccc1ccccc31)C(=O)NC(=O)N(C(C)(C)C)C2=O | -8 | 1.29 |
| CCc1ncnc(NC[C@@H]2CCCN3CCCC[C@H]23)c1F | -6 | 0.99 |
| c1ccc(C2=NC(c3ccccc3)N3CC23c2ccccc2)cc1 (stereo unspecified) | -3 | 0.3 |
| Cc1nccc(NCCN2CC3CCC(C2)O3)n1 | 2 | -0.29 |
| Cc1cncc([C@@H]2CCCN2Cc2n[nH]c3c2COCC3)c1 | -2 | 0.44 |
| COc1ccc(C(=O)N(c2ccc(C(C)C)cc2)C2(C(=O)NCc3ccccc3)CCN(C(C)=O)CC2)cc1 | -2 | 0.3 |
| COc1cccc2c1O[C@H](c1ccccc1)C1(C2)C(=O)NC(=O)NC1=O | -10 | 1.27 |
| COc1ccc(C(=O)N2C[C@@H]3COCCN3C3(CN(C(=O)COc4ccccc4)C3)C2)cc1 | 2 | -0.38 |
| O=C(Cc1cnccn1)N1C[C@H]2CC[C@@H](C1)N(Cc1ccccn1)C2 | -7 | 1.45 |

| Structure (SMILES) | % Inhibition [%] | Z score |
| --- | --- | --- |
| COc1nc(C)ccc1CNc1ncccc1C(=O)N1CCCCC1 | -11 | 0.97 |
| COc1cc(=O)n2c(c1C(=O)O)CCCC2.NC1(c2nc(C3CC3)no2)CCCCC1 | -16 | 1.77 |
| CCCNC(=O)N1C[C@@H](c2cccc(F)c2F)[C@@H]2[C@H]1C1CCN2CC1 | -9 | 1.43 |
| O=C(c1ccccc1F)N1C[C@@H](c2ccc3c(c2)OCO3)[C@@H]2[C@H]1C1CCN2CC1 | 3 | -0.53 |
| Cc1ccc(CC(C)NC(C)CCCC(C)(C)O)cc1 (stereo unspecified) | 1 | -0.15 |
| CS(=O)(=O)N1C[C@@H]2CC[C@H]1CN(Cc1ccccn1)C2 | -8 | 1.07 |
| CC12CCN(CC3(C#N)CC3)CC1C2(F)F (stereo unspecified) | -6 | 0.78 |
| Cc1cc(C)cc(-c2nc(-c3ccc4c(c3)oc(=O)n4C(C)C)no2)c1 | -4 | 0.82 |
| CN1C(C(=O)N2CCC3(CC2)OCCO3)=CC(c2ccco2)=NS1(=O)=O | -13 | 2.53 |
| CN(C)C1CCC2C3CC[C@H]4CC(O)CC[C@]4(C)C3CC[C@@]21C (stereo partly specified) | 2 | -0.29 |
| CC(=O)N(CC1CN(Cc2sccc2C)CC1c1ccc(C)cc1)C1CCCCC1 (stereo unspecified) | 12 | -1.7 |
| COc1cc(CN[C@@H](C)Cc2ccncc2)ccc1OCC=C(C)C | -12 | 1.11 |
| Cc1c(C)[n+]([O-])c([C@@H](c2ccc3c(c2)n(C)c(=O)n3C)C2C(=O)N(C)C(=O)N(C)C2=O)n1Cc1ccccc1 | -8 | 0.97 |
| CN(Cc1cnccn1)S(=O)(=O)c1cc(Br)c(C#N)cc1F | -14 | 2.05 |
| CC(C)N1CCc2nc(NC(=O)c3ccc(-c4noc(=O)[nH]4)cc3)sc2C1 | -6 | 0.66 |
| CCn1nc(C)c(CN2C[C@H](C(=O)O)[C@@H](c3ccc(F)cc3)C2)c1C | -13 | 1.29 |
| CC1CC1C(=O)N1CC(CS(=O)(=O)F)C1 (stereo unspecified) | -17 | 1.78 |
| CC(C)C(NCc1ncccc1Cl)C(O)c1ccc(Cl)cc1 (stereo unspecified) | 2 | -0.3 |
| Cc1ccc(CN2C[C@@H]3CC[C@H]2CN(C)C3)s1 | -10 | 1.98 |
| CN(c1ccccc1Oc1ccccc1)S(=O)(=O)c1ccc2[nH]c(=O)oc2c1 | -12 | 1.37 |
| C[C@H](NCCc1ccc2c(c1)OCO2)c1ccc(=O)[nH]n1 | -2 | 0.33 |

| Structure (SMILES) | % Inhibition [%] | Z score |
| --- | --- | --- |
| CC(NCc1ccncc1F)C(c1ccccc1)N(C)C (stereo unspecified) | -3 | 0.36 |
| Cc1ncn(CC(=O)N2C[C@H]3COc4ccccc4C[C@@]3(C(=O)O)C2)c1C | -10 | 1.64 |
| CC1CN2c3ccccc3CC3(C(=O)NC(=O)NC3=O)C2C(C)O1 (stereo unspecified) | -5 | 0.74 |
| CC(C)[C@@H]1CN(C(=O)COc2ccccc2O)CCCN1CC1CC1 | -4 | 0.74 |
| CC(C)=CCN1C[C@@H]2CC[C@H]1CN(Cc1c(C)noc1C)C2 | 0 | 0.05 |
| CCOCC(=O)N1CCN(CCF)CC1 | -16 | 2.04 |
| Cc1cccc(N2CCC3(CCCN3Cc3[nH]cnc3C)CC2)n1 | -2 | 0.46 |
| O=C(c1ccc(-c2ccsc2)nc1)N1CCC2(CC1)OCCO2 | -10 | 1.35 |
| CN(Cc1nc2ccccc2c(=O)n1-c1ccc(F)cc1)c1ccn(C)n1 | 0 | 0.08 |
| COc1cccc(C(=O)[C@H]2CCCN(C3CCC3)C2)c1 | -1 | 0.12 |
| O=C(c1ccc2c(c1)OCO2)N1C[C@H](c2ccccc2)[C@@H]2[C@H]1C1CCN2CC1 | -2 | 0.3 |
| CCCN1CC[C@@H](CO)N(C)c2nc(C)ccc2C1 | 0 | -0.08 |
| CN(C)CCC(=O)c1ccc(Br)cc1 | 4 | -0.55 |
| Cc1cnn(CC(C)NC(C)c2nc(C3CC3)no2)c1 (stereo unspecified) | 1 | -0.2 |
| O=C(NCc1ccco1)[C@H]1CCCN(S(=O)(=O)c2ccc3[nH]c(=O)oc3c2)C1 | -23 | 2.31 |
| c1ccc(-c2ccno2)c(OC[C@@H]2CCCN3CCCC[C@H]23)c1 | 0 | -0.02 |
| COc1cccc([C@H]2CN(C(=O)c3cncs3)[C@@H]3C4CCN(CC4)[C@H]23)c1 | 0 | 0.02 |
| CCn1ccnc(N2CCC[C@H]2c2cccnc2)c1=O | 0 | 0.08 |
| COc1cccc(CC(=O)N2C[C@@H]3CC[C@H]2CN(Cc2ccccn2)C3)c1 | -22 | 2.89 |
| c1nc(NC2CC2)cc(N2CCN3CCCC[C@H]3C2)n1 | -1 | 0.12 |
| O=S(=O)(F)CCN(CCS(=O)(=O)F)Cc1cn(C2CCC2)nn1 | 1 | -0.14 |

| Structure (SMILES) | % Inhibition [%] | Z score |
| --- | --- | --- |
| CN(C)C(=O)N1C[C@@H](c2cccc(O)c2)[C@@H]2[C@H]1C1CCN2CC1 | -5 | 0.73 |
| Cc1n[nH]c(C)c1CN1C2CCCC1CC2 | 12 | -2.13 |
| O=C(c1cnn2cccnc12)N1C[C@H](c2ccccc2)[C@@H]2[C@H]1C1CCN2CC1 | -19 | 2.34 |
| Cc1ccc2c(n1)N(C)[C@H](CO)CCN(CC1CC1)C2 | -2 | 0.33 |
| COCCc1n[nH]c(C2(N3CCCCC3)CCCCC2)n1 | -4 | 0.68 |
| Cn1cc(CCNS(=O)(=O)c2cc3oc(=O)[nH]c3cc2Cl)cn1 | -16 | 2.43 |
| O=C(c1ccc2cccc(Cl)c2n1)N1C[C@H]2CCCN[C@H]2C1 | 8 | -1.06 |
| Cn1ccc(C(=O)N2C[C@@H](c3cc(F)cc(F)c3)[C@@H]3[C@H]2C2CCN3CC2)n1 | -3 | 0.5 |
| O=C(O)[C@@]12COc3ccccc3[C@@H]1CN(CCCc1cccnc1)C2 | 2 | -0.31 |
| c1ccc([C@H]2CN(c3nnnn3-c3ccccc3)[C@@H]3C4CCN(CC4)[C@H]23)cc1 | -8 | 1.18 |
| Cc1cnc(NC(=O)CN2CCCC2=O)s1 | -8 | 0.96 |
| CCc1cc(N2C[C@H](c3ccccc3OC)[C@@H]3[C@H]2C2CCN3CC2)ncn1 | -11 | 1.23 |
| C#CCN(C)C[C@H](O)c1ccccc1F | -7 | 1.16 |
| O[C@@H](CNC1CCCCCC1)c1ccccc1F | 10 | -1.32 |
| Cc1ocnc1C(=O)N1C2CCC1C(C(=O)N1CCc3ccccc31)C2 (stereo unspecified) | -9 | 1.11 |
| CCn1ccc(C(=O)N2C[C@@H](c3ccc4c(c3)OCO4)[C@@H]3[C@H]2C2CCN3CC2)n1 | -2 | 0.45 |
| Cc1ccoc1C(=O)N1C[C@@H](c2cccc(F)c2F)[C@@H]2[C@H]1C1CCN2CC1 | -11 | 2.16 |
| O=C(c1ccccc1)c1ccc2n1CC[C@H]2C(=O)N1CCC2(CC1)OCCO2 | 25 | -2.82 |
| CN(c1nc(Cn2c(-c3ccccc3)noc2=O)cs1)C1CC1 | -9 | 1.19 |
| C#CCNC(=O)[C@@H](NC(=O)c1ccn(C(C)C)n1)[C@@H](C)O | 3 | -0.34 |
